# Results published in the supplement of paper PMC10126150.
# Sequences with one replicate were seen in a single cluster, so their values are uncertain.
# Tested on: ATP
# Experiment: switch fluorescence ratio, 500 uM ATP over buffer (Cy3 cluster intensity, sum of 5 cycles each) (fold (ratio)); higher = stronger signal-on switching upon ATP binding; sequences stand for … in TCGTCGGCAGCGTCAGATGTGTATAAGAGACAGTTTTTTTTTTTTTTTTTTTTTTTTT…TC
# Settings: aptamer strand: ATP DNA aptamer (quencher-CACCTGGGGGAGTATTGCGGAGGAAGG + anchor), 100 nM annealed; ATP concentration: 500 uM; one replicate
# Method in brief: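 Cy3-labelled switching-strand clusters on a modified Illumina MiSeq flow-cell were annealed to 100 nM quencher-labelled ATP aptamer, imaged in selection buffer, then imaged after 15 min with 500 uM ATP at 22 °C. Five buffer/ATP cycles ran, with NaOH stripping and re-annealing between them. The fluorescence ratio is summed target-cycle over summed buffer-cycle Cy3 intensity per cluster, averaged per switch-domain sequence. Clusters outside 100-1000 RFU were excluded.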
# 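Also: ATP exposure 15 min at 22 °C before imaging.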
row,Sequence,switch fluorescence ratio
1,GTTCTGTA,1.02
2,GTTCTT,1.04
3,GTTCTTTGGC,0.985
4,GTTGAAAAGT,0.952
5,GTTGACACCA,1.03
6,GTTGAGCGCT,0.944
7,GTTGAGGGCG,1.01
8,GTTGAGTGCC,1.02
9,GTTGAGTTTA,1.01
10,GTTGATGCAG,0.998
11,GTTGCACATA,1.03
12,GTTGCAGAAA,1.02
13,GTTGCAGTTT,0.98
14,GTTGCATAAA,0.983
15,GTTGCATGAT,0.931
16,GTTGCCATTT,1
17,GTTGCCCGGT,1.01
18,GTTGCCGCT,1.03
19,GTTGCCTTAA,0.937
20,GTTGCGCAGA,0.973
21,GTTGCGTCTC,0.963
22,GTTGCGTGC,1

row,Sequence,switch fluorescence ratio
1,GTTGCTATTG,1.01
2,GTTGCTCTCC,1.09
3,GTTGCTTTAA,1.01
4,GTTGGAAGTT,0.925
5,GTTGGCGTGT,0.953
6,GTTGGGAATC,0.998
7,GTTGGGCCTG,0.996
8,GTTGGGGAGA,0.992
9,GTTGGGTCGT,0.987
10,GTTGGGTTCA,1.01
11,GTTGGGTTGT,1.03
12,GTTGGTTATA,0.986
13,GTTGTACCTT,1.04
14,GTTGTACGTC,0.935
15,GTTGTATAGT,0.964
16,GTTGTGCTTA,0.948
17,GTTGTGGAGG,0.955
18,GTTGTTAATA,0.998
19,GTTGTTCGAA,1.03
20,GTTGTTCTT,0.969
21,GTTGTTGCCA,0.982
22,GTTGTTGGAG,0.919

row,Sequence,switch fluorescence ratio
1,GTTGTTTCAA,1
2,GTTGTTTGAG,0.954
3,GTTGTTTTAC,1
4,GTTTAACGAG,0.951
5,GTTTAATCGG,1.02
6,GTTTACCCAG,1.01
7,GTTTACCCTC,0.996
8,GTTTAGTGTT,0.973
9,GTTTATCTGT,0.978
10,GTTTATTTGA,0.976
11,GTTTCAAAGG,0.992
12,GTTTCACGAA,0.993
13,GTTTCACTAT,1.04
14,GTTTCCTTCA,1.2
15,GTTTCGGAGG,0.991
16,GTTTCGGGAC,1.01
17,GTTTCTAGTG,0.957
18,GTTTGAAATC,0.962
19,GTTTGAACCT,2.1
20,GTTTGAGCG,1.03
21,GTTTGATACG,1
22,GTTTGATGAC,1.07

row,Sequence,switch fluorescence ratio
1,GTTTGCGATG,1.02
2,GTTTGGCTGC,1.02
3,GTTTGTAGAT,1.12
4,GTTTGTAGCT,1.35
5,GTTTGTGCAA,1.02
6,GTTTTAACCC,0.977
7,GTTTTACCCC,1.06
8,GTTTTAGACC,1.03
9,GTTTTATAAT,1.01
10,GTTTTATAGA,1.01
11,GTTTTCCTAG,1.03
12,GTTTTGCAAT,1.18
13,GTTTTTTCAC,1.02
14,TAAAACCTAT,1.21
15,TAAAAGCTAC,1.15
16,TAAAAGTAAG,0.984
17,TAAAAGTGAC,1.08
18,TAAAATACTG,1.01
19,TAAAATTCT,1.02
